# Results: PubChem BioAssay AID686971 (National Center for Advancing Translational Sciences (NCATS), 2013)
# In all, about 360,000 compounds went through this assay and about 7,500 (2.1%) were called active. This list was built around the results that the source calls inconclusive (neither active nor inactive); the mix of calls is not that of the screen. Calls come from the whole dose curve; as a rule, active = well fitted cell-killing curve with a large enough effect; inconclusive = small, poorly fitted or top-dose-only effect, or effect the other way, or another doubt; inactive = no such curve, though single readings can be large or run the other way. No potency is given beside an inconclusive call; the fits are too rough.
# Test: qHTS for induction of synthetic lethality in tumor cells producing 2HG: qHTS for the HT-1080-IDH1KD cell line;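 for activity, negative = toxicity: 0% = DMSO wells and -100% = cell-free medium wells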
# Conditions: HT-1080 IDH1 knockdown viability, ATP luminescence, 48 h; activity, negative = toxicity: at 46.1 µM (top of the series) unless noted
# Outline: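 CellTiter-Glo luminescence after 48 h compound exposure at 37 degrees C of IDH1-knockdown HT-1080 cells in 5% FBS RPMI. %Activity scaled between DMSO wells and cell-free media wells, with curves fitted and assigned curve classes.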
# Potency is the fitted concentration of half-maximal effect; tags give direction and shape of the fitted curve.
SMILES,Potency,"activity, negative = toxicity"
COc1ccc(-n2c(=S)[nH]c3cc(C(=O)Nc4ccc(C)c(F)c4)ccc3c2=O)c(OC)c1,"inconclusive [cytotoxic, partial curve]",–
COC(=O)c1c(NC(=O)CCNCc2ccco2)sc2c1CCC2,"inconclusive [cytotoxic, partial curve]",–
CN1CCN(C(=O)c2cccc(S(=O)(=O)N3CCCCC3)c2)CC1,–,inconclusive: 3.18% [cytotoxic]
COc1ccccc1N1CCN(CC(=O)Nc2ccc(CN3CCCCC3)cc2)CC1,–,inactive: -1.64%
CCO[C@H]1OC(C(=O)N2CCN(Cc3ccc4c(c3)OCO4)CC2)=C[C@@H](c2ccc(Br)cc2)[C@@H]1CCCO,"inconclusive [cytotoxic, single point]",–
Cn1cnc(S(=O)(=O)N2CCCC(c3cc(C(=O)Nc4ccc(F)c(Cl)c4)no3)C2)c1 (stereo not drawn),"inconclusive [cytotoxic, single point]",–
CCCc1cc(C(=O)N/N=C/c2ccc(CC)s2)c2ccccc2n1,active: 3.66 µM,–
CC1OC(CC(=O)O)CC2=C1C(=O)c1c(O)cccc1C2=O (stereo not drawn),active: 0.259 µM,–
COc1ccc(C2SCC(=O)N2CCc2ccc(OC)c(OC)c2)cc1 (stereo not drawn),active: 18.4 µM,–
CC1=CN2C(=N)/C(=C\c3cn(CCCOc4ccccc4)c4ccccc34)C(=O)N=C2S1,"inconclusive [cytotoxic, full curve, poor fit]",–
N#Cc1cc2sc3nnc(-c4ccncc4)n3c2cc1C#N,"inconclusive [cytotoxic, single point]",–
CCOC(=O)Cc1nnc2c(Nc3ccc(Cl)cc3)nc3nonc3n12,active: 9.2 µM,–
CC1=C(C(=O)OCCNC(=O)c2ccccc2O)C(c2ccccc2[N+](=O)[O-])C(C(=O)OCC2CCCO2)=C(C)N1 (stereo not drawn),"inconclusive [cytotoxic, single point]",–
COC(=O)c1cc(COc2ccc3oc(C)c(C(=O)OC)c3c2)c(C)o1,"inconclusive [cytotoxic, single point]",–
CC(=O)Nc1ccc(Oc2nc(-c3ccccn3)nc3ccccc23)cc1,–,inconclusive: -31.6% [cytotoxic]
CC(C)Cc1ccc(C(C)C(=O)OCC(=O)c2c[nH]c3ccccc23)cc1 (stereo not drawn),"inconclusive [cytotoxic, single point]",–
CCOc1cc(/C=N/Nc2nc3ccccc3[nH]2)cc(Br)c1OCC(=O)N(C)C,"inconclusive [cytotoxic, partial curve]",–
Cc1ccc2c(c1)C1CN(C)CCC1N2Sc1ccccc1[N+](=O)[O-] (stereo not drawn),"inconclusive [cytotoxic, single point]",–
CC1=C(C(=O)N(C(C)C)C(C)C)CC(CC(=O)NC2CCCC2)C(=O)N1Cc1ccc(C(C)(C)C)cc1 (stereo not drawn),"inconclusive [cytotoxic, single point]",–
COc1ccc2nc3n(c(=O)c2c1)-c1cc2ccccc2cc1C(=O)NC3Cc1ccc(O)cc1 (stereo not drawn),active: 3.26 µM,–
COc1ccc2cnn(-c3ccccc3C)c(=O)c2c1OC,–,inactive: -7.72%
COc1ccc(OC)c(C2CC(=O)c3c([nH]c(C(=O)OC(C)C)c3C)C2)c1 (stereo not drawn),active: 3.26 µM,–
CCOC(=O)c1c(-c2cccs2)csc1NC(=O)CN1CC(C)OC(C)C1 (stereo not drawn),"inconclusive [cytotoxic, single point]",–

SMILES,Potency,"activity, negative = toxicity"
CCOC(=O)N1CCN(Cc2ccccn2)CC1,–,inactive: 21.7%
COc1ccc(OC)c2c1sc(=NC(=O)C(C)C)n2C,–,inactive: 1.66%
CNS(=O)(=O)c1ccc(CNC[C@H]2O[C@@H](n3cnc4c(=O)[nH]c(N)nc43)[C@H](O)[C@@H]2O)cc1,"inconclusive [rising, partial curve]",–
COc1ccccc1-c1cc(C(=O)N2CCN(c3ccccc3OC)CC2)no1,"inconclusive [cytotoxic, single point]",–
CCCCNS(=O)(=O)c1ccc(NC(=O)c2c(-c3ccccc3Cl)noc2C)cc1,"inconclusive [cytotoxic, single point]",–
C/C(=N\NC(=O)c1ccccc1OCc1ccc(F)cc1)c1ccccn1,"inconclusive [cytotoxic, full curve]",–
COCCN1C(=O)N(c2cccc(C)c2)C(=O)C1CC(=O)Nc1ccc(OC)cc1 (stereo not drawn),–,inactive: 1.93%
C=CCn1c(Oc2cccc(C)c2)nc2c1c(=O)n(C)c(=O)n2C,–,inactive: 6.06%
O=C(/C=C/c1ccc(OC(F)F)cc1)Nc1cccc(S(=O)(=O)N2CCOCC2)c1,"inconclusive [cytotoxic, single point]",–
Cc1cc(O)cc(O)c1/C=N/NC(=O)c1ccc2c(c1)OCCO2,active: 13 µM,–
CC1=C(C(=O)OC2CCCC2)C(c2coc3ccccc3c2=O)C2=C(CCCC2=O)N1 (stereo not drawn),–,inactive: 9.31%
Cc1sc2ncn(CC(=O)Nc3cccc(S(N)(=O)=O)c3)c(=O)c2c1-c1ccccc1,"inconclusive [cytotoxic, single point]",–
Cc1cc(NC(=O)CSc2nnc(-c3cccc(Cl)c3)o2)no1,"inconclusive [cytotoxic, partial curve]",–
c1ccc(-c2n[nH]nc2-c2ccccc2)cc1,"inconclusive [cytotoxic, single point]",–
COc1cccc(NC(=O)C2(C)CCN2Cc2ccc(OC)c3ccccc23)c1 (stereo not drawn),"inconclusive [cytotoxic, single point]",–
Cn1c(NCc2ccccc2)nc2c1c(=O)n(Cc1ccc(Br)cc1)c(=O)n2C,"inconclusive [cytotoxic, single point]",–
C(=N\Nc1ccc2ccccc2n1)/c1ccc2c(c1)OCO2,"inconclusive [cytotoxic, single point]",–
O=C(COc1ccc(Br)cc1F)NCC1(N2CCCCC2)CCCCC1,"inconclusive [cytotoxic, single point]",–
COc1ccc(-c2cc(C(F)(F)F)nc(S(=O)(=O)CCCC(=O)Nc3cccnc3Cl)n2)cc1OC,active: 10.3 µM,–
COc1ccc(-c2csc3ncnc(N4CCN(S(=O)(=O)c5cccs5)CC4)c23)cc1,–,inactive: -10.1%
O=C(O)C1CC=CCC1C(=O)N1CCN(c2nc(-c3ccccc3Cl)c3cc(Br)ccc3n2)CC1 (stereo not drawn),"inconclusive [cytotoxic, partial curve]",–
CCCC(=O)NC(c1ccccc1)c1c(O)ccc2ccccc12 (stereo not drawn),–,inactive: -14.9%
c1ccc(CNc2nc(-c3cccs3)nc3ccccc23)cc1,active: 18.4 µM,–

SMILES,Potency,"activity, negative = toxicity"
Clc1ccc(Cn2c(/C=C/c3ccco3)nc3ccccc32)cc1,"inconclusive [cytotoxic, single point]",–
OCC(CO)c1cnnc2ccccc12,–,inactive: 19.1%
Cc1onc(-c2ccccc2)c1-c1csc(N/N=C/c2ccccc2Cl)n1,–,inactive: -2.84%
CO/N=C/C(=N\Nc1ccc(OC)cc1)C(=O)c1ccc(F)cc1,"inconclusive [rising, partial curve]",–
O=c1ccn([C@@H]2O[C@H](CNCc3c(OCc4ccccc4F)ccc4ccccc34)[C@@H](O)[C@H]2O)c(=O)[nH]1,"inconclusive [cytotoxic, single point]",–
COc1ccc(CN=Cc2c(O)[nH]c3ccccc23)cc1,–,inactive: -0.617%
Cc1nc(CN(C)C(=O)c2cc(COc3ccc4ncccc4c3)on2)cs1,"inconclusive [cytotoxic, partial curve]",–
CC(C)C(N)c1csc(Nc2nncc3ccccc23)n1 (stereo not drawn),"inconclusive [cytotoxic, single point]",–
Cc1ccc(/C=C/C(=O)NCc2ccc(S(N)(=O)=O)cc2)o1,–,inactive: 18.4%
CN(C)CCCN(C(=O)c1ccc(S(=O)(=O)N2CCCCCC2)cc1)c1nc2ccc(F)cc2s1,"inconclusive [cytotoxic, single point]",–
C=CCOC(=O)C1=C(C)NC(SCC)=C(C#N)C1c1ccc(Cl)cc1 (stereo not drawn),active: 8.2 µM,–
CCCCNC(=O)c1nc(C2CCNCC2)oc1-c1cccc(C(F)(F)F)c1,"inconclusive [cytotoxic, single point]",–
Cc1[nH][nH]c(=O)c1C(c1c(C)[nH][nH]c1=O)c1cn(Cc2ccc(F)cc2)c2ccccc12,"inconclusive [cytotoxic, single point]",–
O=C(CCCN1C(=O)/C(=C/c2cccs2)SC1=S)Nc1ccc(O)cc1,"inconclusive [cytotoxic, single point]",–
COCCNc1nc(NCCOc2ccccc2Cl)c2sc(-c3ccccc3)cc2n1,"inconclusive [cytotoxic, single point]",–
Oc1ccc(-c2n[nH]c(=S)n2-c2ccc3c(c2)OCCO3)c(O)c1,"inconclusive [cytotoxic, single point]",–
O=C(CN1CCN(S(=O)(=O)N2CCCCC2)CC1)Nc1ccc(Cl)c(Cl)c1,"inconclusive [cytotoxic, partial curve]",–
CNS(=O)(=O)c1ccc2c(c1)[nH]c(=S)n2C,–,inactive: -8.8%
COc1ccccc1NC(=S)N1CCN(c2nc(-c3ccccc3)cs2)CC1,–,inactive: -8.64%
CC1CCCN(C(=O)c2ccc(S(=O)(=O)N3CCC(c4nc5ccccc5s4)CC3)cc2)C1 (stereo not drawn),–,inactive: -6.22% [at 9.24 µM]
Cc1cc(N/N=C/c2ccc(F)cc2)nc(-n2nc(C)cc2C)n1,active: 1.84 µM,–
CN(Cc1ccc(Cl)cc1)C(=O)COC(=O)c1ccc(-c2ccc(O)cc2)cc1,"inconclusive [cytotoxic, partial curve]",–
